Test results: PubChem BioAssay AID894 (National Center for Advancing Translational Sciences (NCATS), 2007)
Screen size: about 150,000 compounds; about 6,500 (4.3%) were called active. Inconclusive results, whose numbers are uncertain, are shown with a selection of clear calls. The call rests on the fitted dose curve; in most records, active means well fitted inhibition curve with a large enough effect (not every such curve was filed as active); inconclusive means small, poorly fitted or top-dose-only effect, or another doubt; inactive means no such curve, though single readings can be large or run the other way. Potencies of inconclusive entries are left out as doubtful fits.

What follows are compounds tested against 15-hydroxyprostaglandin dehydrogenase [NAD(+)] (Homo sapiens) (UniProt P15428) (assay: qHTS Assay for Inhibitors of HPGD (15-Hydroxyprostaglandin Dehydrogenase)). Details: purified HPGD, NADH fluorescence kinetic, PGE2 substrate; activity change, negative = inhibition: stronger effect = lower value.
UniProt P15428, sequence (P15428 whole entry, looked up): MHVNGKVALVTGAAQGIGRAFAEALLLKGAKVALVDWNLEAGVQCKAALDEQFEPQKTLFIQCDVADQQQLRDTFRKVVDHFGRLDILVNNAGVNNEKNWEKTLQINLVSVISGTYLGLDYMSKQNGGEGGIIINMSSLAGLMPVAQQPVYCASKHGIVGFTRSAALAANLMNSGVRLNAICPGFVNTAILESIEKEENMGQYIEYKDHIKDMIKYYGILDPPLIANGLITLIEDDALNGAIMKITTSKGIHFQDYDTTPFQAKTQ
Method in brief: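 20 nM HPGD preincubated 15 min at room temperature with compound in 50 mM Tris-HCl pH 8, 0.01% Tween 20. Started with 1 mM NAD+ and 30 uM prostaglandin E2; NADH fluorescence (360/450 nm) read 5 times over 30-s intervals, last minus first.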
On the % scale 0 is the no-effect control and ±100 the full control effect; potency means the concentration at half of the fitted maximal effect; tags describe the fitted curve by direction and shape.

With `CCCCCNC1=CC(=O)CC(c2ccccc2)C1` (stereo not drawn) as the compound, how does the activity change, negative = inhibition read?
The activity change, negative = inhibition was inactive: -20.4%.

For `Cc1cc(N2CCCCC2)n2ncc(-c3ccc(Cl)cc3)c2n1`, which Potency is on record?
The Potency was inconclusive [inhibitor, partial curve].

`O=c1[nH]c(=O)n(Cc2ccco2)c2c1C(C(F)(F)F)(C(F)(F)F)N=C(C1CCCCC1)N2` was tested. Which Potency did it give?
Its Potency is inconclusive [inhibitor, full curve].

How did the Potency turn out when `CC(C)c1ccc(CC(C)C2C3=C(CCCC3=O)OC3=C2C(=O)CCC3)cc1` (stereo not drawn) was run?
The Potency was inconclusive [inhibitor, partial curve].

With `COC(=O)[C@@]1(Cc2ccc(F)cc2)[C@H]2c3cc(C(=O)N(C)C)n(CCc4ccc(O)c(O)c4)c3C[C@H]2CN1C(=O)c1ccccc1` as the compound, how does the Potency read?
The Potency was inconclusive [inhibitor, single point].

Which Potency does the source give for `CCOc1cccc2sc(=NC(=O)c3ccc(S(=O)(=O)N4CCOCC4)cc3)n(C)c12` here?
The Potency was inconclusive [inhibitor, partial curve].

With `Cc1ccc(S(=O)(=O)/N=C2/NC(=O)/C(=C/c3ccncc3)S2)cc1` as the compound, how does the Potency read?
Its Potency is active: 14.1 µM.

How did the Potency turn out when `Fc1ccc(Cn2ccc(-c3cnc(-c4ccccc4)s3)n2)cc1` was run?
Its Potency is inconclusive [inhibitor, partial curve].

For `CCOc1ccc(CN(C(=O)c2cc3ccccc3oc2=O)C2CC2)cc1`, which activity change, negative = inhibition is on record?
The activity change, negative = inhibition was inactive: -25.5%.

With `CC(=O)N1CCN(CCN=CC2=C(O)CC(c3ccco3)CC2=O)CC1` (stereo not drawn) as the compound, how does the activity change, negative = inhibition read?
Its activity change, negative = inhibition is inactive: -17.2%.

With `S=c1[nH]nc(COc2ccccc2)n1/N=C/C(Cl)=C/c1ccccc1` as the compound, how does the Potency read?
The Potency was active: 25.1 µM.

For `CCCCN(C)c1nc(-c2ccco2)c2c(c1C#N)CC(C)(C)OC2`, which Potency is on record?
Its Potency is inconclusive [inhibitor, partial curve].

Which Potency does the source give for `CN(C)CCn1c(NC(=O)c2ccc(Cl)cc2)nc2ccccc21` here?
Its Potency is inconclusive [inhibitor, single point].

For `O=C(c1cccc(F)c1)N1CCC2(CC1)CN(c1ncccn1)C2`, which Potency is on record?
The Potency was inconclusive [inhibitor, partial curve].

With `COc1ccc(C2C(C(=O)N3CCOCC3)CCC(=O)N2c2cc(OC)c(OC)c(OC)c2)cc1` (stereo not drawn) as the compound, how does the activity change, negative = inhibition read?
The activity change, negative = inhibition was inactive: -9.68%.

With `FC(F)(F)c1cnc(Oc2ccccc2-c2nnc(-c3ccc(Cl)cc3)o2)c(Cl)c1` as the compound, how does the Potency read?
The Potency was inconclusive [inhibitor, partial curve].

Which Potency does the source give for `CCOc1ccc2[nH]c(=O)c(C(c3nnnn3CCOC)N3CCOCC3)cc2c1` (stereo not drawn) here?
The Potency was inconclusive [inhibitor, partial curve].

For `COC(=O)C(CC(C)C)NC(=O)C(N)Cc1ccccc1` (stereo not drawn), which activity change, negative = inhibition is on record?
Its activity change, negative = inhibition is inactive: -1.57%.
